Laboratory results taken from PubChem BioAssay (NCATS).
This list was built around the results that the source calls inconclusive (neither active nor inactive); the mix of calls is not that of the screen. The source made the active and inactive calls. Calls follow the shape of the dose curve; as a rule, active = well fitted curve in either direction with a large enough effect (not every such curve was filed as active); inconclusive = small, poorly fitted or top-dose-only effect, or another doubt; inactive = flat fitted curve, though single readings scatter.

assay: NFAT Signaling Pathway (AID 444); settings: Jurkat NFAT-bla M1, carbachol, beta-lactamase ratio, 5 h; at 7.69 µM (top of the series) unless noted;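 also: carbachol stimulus at about its EC50 of 1 µM final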
Procedure, shortened: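 Read-out: CCF4 FRET ratio (460 nm/530 nm) after 1 h RT dye loading, used for %activity and AC50 from titration series. Cells: Jurkat NFAT-β-lactamase/M1 line, treated with compound plus 1 uM carbachol for 5 h, 37 °C.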
% is scaled to controls: 0 for no effect and ±100 for the full control effect.

Compound | activity change, negative = inhibition
CC(=C1C(=O)c2ccccc2C1=O)N1CCN(CCN=Cc2c(O)n(C)c(=O)n(C)c2=O)CC1 | inactive: -5.34% [at 17.2 µM]
COCC(=O)N1CCC2(CCCN(Cc3ccncc3)C2)CC1 | inconclusive: -53.8% [inhibitor]
CCN(CC)CCCNC(=O)c1c(O)c2ccccc2n(Cc2ccccc2)c1=O | inconclusive: -20% [inhibitor] [at 17.2 µM]
O=c1[nH]c(=O)n(Cc2ccco2)c(O)c1C=NCCN1CCOCC1 | inactive: -0.917% [at 17.2 µM]
NS(=O)(=O)c1ccc(-c2ccc([As](=O)(O)O)cc2)cc1 | inactive: 17.3%
O=C1NC(=O)C(C/C=C/c2ccccc2)C(=O)N1 | inactive: -11.1% [at 17.2 µM]
CCOC(=O)c1ccc2[nH]c(-c3ccc(S(=O)(=O)F)cc3)cc(=O)c2c1 | inactive: 25.8%
O=P(O)(O)CCP(=O)(O)O | inactive: 7.15%
CCOC(=O)c1cc(C)n(CCc2cnc[nH]2)c1C | inconclusive: -38% [inhibitor] [at 17.2 µM]
CC(C)NC(=O)N1CCC2(CC1)CCN(C(=O)Oc1ccccc1)CC2 | inconclusive: 32.5% [activator]
C=CCn1c(O)c(C=Nc2ccc(N(CC)CC)cc2)c(=O)[nH]c1=O | inconclusive: -44.4% [inhibitor] [at 17.2 µM]
O=C(NCP(=O)(O)O)c1cccnc1 | inactive: 5.87%
CC[C@@H]1[C@@H]2Cc3ccc(O)cc3[C@@]1(CC)CCN2C | inactive: 17.1%
CN1CCCC2(CCN(C(=O)c3ccco3)CC2)C1 | inconclusive: -58.2% [inhibitor]
O=c1[nH]c(=O)n(CCc2ccccc2)c(O)c1C=NCCN1CCNCC1 | inconclusive: -10.2% [inhibitor] [at 17.2 µM]
CN1CCc2c(c(N3CCCCC3)nc3n[nH]c(N)c23)C1 | inactive: -4.59% [at 17.2 µM]
COc1ccc(C2SCC(=O)Nc3c2c(=O)[nH]n3C2CCCCC2)cc1 (stereo not drawn) | inactive: 0.11% [at 17.2 µM]
O=C(O)[C@@H](O)[C@@H](O)[C@@H]1[O][Sb][O][C@@H]1CO | inactive: 5.74%
O=C(Nc1ccccc1)N1CC[C@@]2(CCCNC2)C1 | inactive: 19.4%
COc1ccc2c(c1)c(C(=O)O)c(C)n2CC(C)C | inactive: 1.61% [at 17.2 µM]
N[C@@H](Cc1cc(Br)c(O)c(Br)c1)C(=O)O | inconclusive: 36.5% [activator]
Nc1c(C(=O)Nc2ccc([As](=O)(O)O)cc2)cnc2nnnn12 | inactive: 25.5%
COc1cc2c(cc1OC)[C@]13CC[N@+]4(C)CC5=CCO[C@H]6CC(=O)N2[C@@H]1[C@@H]6[C@@H]5C[C@]34O | inactive: 4.86%
Oc1ccc2c3c1O[C@H]1[C@@H](O)CC[C@]4(O)[C@H](C2)N(CC2CCC2)CC[C@@]314 | inactive: -1.63% [at 17.2 µM]
CCCCOCCCn1c(N)c(C(=O)OCCOC)c2nc3ccccc3nc21 | inconclusive: 34.8% [activator] [at 17.2 µM]
COc1ccc(NC(=O)N2CC3(CCN(C(=O)Oc4ccccc4)CC3)C2)cc1 | inactive: 3.27%
CN1C(=O)CN=C(c2ccc(Cl)cc2)c2cc(Cl)ccc21 | inconclusive: -42% [inhibitor] [at 17.2 µM]
CCC(=NCCOc1ccc(Cl)cc1)c1c(O)n(C)c(=O)n(C)c1=O | inconclusive: -32.1% [inhibitor] [at 17.2 µM]
